# Reference: PubChem BioAssay AID485344 (National Center for Advancing Translational Sciences (NCATS), 2010)
# Out of some 340,000 compounds screened, about 6,900 (2%) were called active. Cut-off read from the data, not from the text of the source: active = inhibition above about 30%; inactive = below that, where a call was filed. This is a selection; strong and weak results do not stand in their true shares. Entries without a call were filed so in the source.
# Biological target: D(2) dopamine receptor (Homo sapiens) (UniProt P14416)
# Experiment: HTS Assay for Allosteric Antagonists of the Human D2 Dopamine Receptor: Primary Screen for Antagonists; note: 0% is about no effect
# Conditions: HEK293 TREx D2 cells, calcium flux, dopamine EC80; at 10 µM; stronger effect = higher value
# Method in brief: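 In this primary screen, negative modulation is detected by tracking calcium flux after an EC80 dopamine challenge in inducible HEK293 T-REx D2 cells preexposed to test compound for 180 s.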
# Sequence of UniProt P14416 (P14416 whole entry, looked up): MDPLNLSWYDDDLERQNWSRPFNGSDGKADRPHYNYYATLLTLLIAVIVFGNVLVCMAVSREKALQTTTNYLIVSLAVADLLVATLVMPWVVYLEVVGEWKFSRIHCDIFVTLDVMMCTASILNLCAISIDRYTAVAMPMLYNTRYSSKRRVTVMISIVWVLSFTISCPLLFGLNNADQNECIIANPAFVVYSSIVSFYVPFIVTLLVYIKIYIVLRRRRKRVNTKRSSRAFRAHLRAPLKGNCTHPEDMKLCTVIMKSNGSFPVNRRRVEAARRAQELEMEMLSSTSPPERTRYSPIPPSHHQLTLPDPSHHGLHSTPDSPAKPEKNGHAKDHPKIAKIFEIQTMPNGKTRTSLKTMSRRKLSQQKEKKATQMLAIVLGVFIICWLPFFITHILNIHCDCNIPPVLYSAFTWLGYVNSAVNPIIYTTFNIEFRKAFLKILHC
row,Structure (SMILES),inhibition
1,Oc1ccccc1-c1nc(/C=C/c2ccccc2)nn1-c1ccccc1,-5.57%
2,Cc1cc(=O)oc2c3c(cc(OCC(=O)NC(Cc4ccc(Cl)cc4)C(=O)O)c12)OC(C)(C)CC3 (stereo unspecified),active: 35.9%
3,CC(C)NC(=O)Cn1c(=O)nc(-c2ccccc2)c2ccccc21,-3.3%
4,CCOc1ccc(CCNC(=O)c2ccc(C)c(-n3cnc4cccnc43)c2)cc1,-12%
5,COc1cccc(CNC(=O)c2ccc3c(Cl)c4c(nc3c2)CCCC4)c1,1.11%
6,Cc1ccc(C(C)C)c(OCc2ccc(C(=O)Nc3ccc(S(N)(=O)=O)cc3C)o2)c1,26.4%
7,CCOc1ccc(Nc2cc(C)c(C#N)c3nc4ccccc4n23)cc1,-6.76%
8,N#Cc1cc(C(=O)c2cc(F)ccc2O)cn(-c2nccs2)c1=O,active: 34.2%
9,Cc1ccc(SCC(=O)Nc2ccc3oc(-c4ccc(F)cc4)nc3c2)cc1,-6.35%
10,CCc1ccc(CNC(=O)c2ccc(NC(=O)N3CCSc4ncccc43)cc2)cc1,4.33%
11,COc1ccc(C(=O)NCc2nnc(SCC(=O)Nc3ccc(C)cc3)n2-c2ccccc2)cc1,-1.1%
12,Cc1ccc(S(=O)(=O)N2CCC(c3nnc(-c4cccc(C)c4)o3)CC2)cc1,3.18%
13,CCOc1ccc(CNC(=O)CCc2c(C)nn(-c3ccc(N4CCOCC4)nn3)c2C)cc1,-12.7%
14,CCC1CCCCN1C(=O)CSc1nc(-c2ccc(OC)cc2)cc(C(F)(F)F)n1 (stereo unspecified),-0.854%
15,CCn1cc2nc(SCC(=O)Nc3cccc(Cl)c3C)n(Cc3ccc(Cl)cc3)c(=O)c2n1,-18.5%
16,CCc1ccc(CNC(=O)c2cnc3sc(N4CCCCCC4)nn3c2=O)cc1,-1.05%
17,CCOc1ccc(C(=O)Nc2ccc3nc(SCC(=O)N4CCCC4)sc3c2)cc1,-18.7%
18,CC(C)c1ccc(NC(=O)CN(C)S(=O)(=O)c2ccc3c(c2)n(C)c(=O)c(=O)n3C)cc1,-7.32%
19,CCOC(=O)N1CCN(CCC(=O)Nc2cc(C)ccc2C)CC1,2.32%
20,CCn1cnc2cc(NCc3ccc(N(C)C)cc3)ccc21,6.62%
21,COc1ccccc1CCNC(=O)C1CCN(c2nc3ccccc3nc2C(F)(F)F)CC1,13.7%
22,COC(=O)c1ccccc1NC(=O)CSc1c2c(nc3ccc(Cl)cc13)CCCC2,-0.255%
23,COc1cccc(CNC(=O)C2CCCN(c3nnc(-n4c(C)ccc4C)s3)C2)c1 (stereo unspecified),7.62%
24,COc1ccc(N(C(=O)CNC(=O)c2cccs2)C(C(=O)NCC2CCCO2)c2ccccc2)cc1 (stereo unspecified),active: 80.4%
25,Cc1cc(C)c(S(=O)(=O)Nc2ccc(-c3ccc(N4CCCCC4)nn3)cc2)cc1C,-1.41%
26,O=C(NCC(c1cccnc1)N1CCN(Cc2ccccc2)CC1)C(=O)Nc1ccc(F)cc1 (stereo unspecified),3.9%
